Experimental data taken from the supplement of paper PMC12645437, “Orthogonal IMiD-Degron Pairs Induce Selective Protein Degradation in Cells” (ACS Chemical Biology, 2025).
Some of the results follow.

What follows are sequences tested against no compound (DMSO) (assay: log2 fold change of degron read counts, EGFP-low vs EGFP+ sorted cells; higher = lower degron-EGFP level without compound (poor expression or instability)). Settings: compound: DMSO control; 18 h.
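Also: jurkat cells carrying a lentiviral library of mutant zinc finger degrons fused to EGFP plus mCherry, mCherry+ cells FACS sorted, degron abundance counted by next-generation sequencing.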

Sequence | log2 fold change of degron read counts
FGCNQCGHCFTQKGNLLRHIKL | 0.497
FTCDVCGANFTQKGNLLRHIKL | -1.34
FECEICGHEFTQKGNLLRHIKL | -2.03
FACEICGRSFTQKGNLLRHIKL | -2.44
FRCEICGALFTQKGNLLRHIKL | -1.21
LICNQCGFECTQKGNLLRHIKL | -0.563
FCCSVCGHDFTQKGNLLRHIKL | -0.493
FWCDVCGAYFTQKGNLLRHIKL | 0.26
FKCPICGASFTQKGNLLRHIKL | -0.768
FDCEVCGAPFTQKGNLLRHIKL | -1.29
FLCDVCGARFTQKGNLLRHIKL | -1.55
FFCDVCGALFTQKGNLLRHIKL | -0.191
FRCNQCGRAFTQKGNLLRHIKL | -0.419
FSCNVCGADFTQKGNLLRHIKL | -2
FICDVCGAPFTQKGNLLRHIKL | -1.65
FICSVCGHAFTQKGNLLRHIKL | -0.527
LSCNQCGFSCTQKGNLLRHIKL | 0.576
LKCNQCGFECTQKGNLLRHIKL | -0.715
FHCNQCGACFTQKGNLLRHIKL | 0.862
LYCPICGFPCTQKGNLLRHIKL | 1.76
FFCEICGRWFTQKGNLLRHIKL | 0.666
LRCEICGFTCTQKGNLLRHIKL | -0.0312
LICNQCGFHCTQKGNLLRHIKL | 0.438
FGCPQCGAKFTQKGNLLRHIKL | -1.39
FVCNVCGAYFTQKGNLLRHIKL | -0.496

Sequence | log2 fold change of degron read counts
FMCEICGRLFTQKGNLLRHIKL | -0.514
FNCPQCGAKFTQKGNLLRHIKL | -1.36
FDCSVCGHVFTQKGNLLRHIKL | 0.378
FICEICGAYFTQKGNLLRHIKL | -0.641
FFCPVCGARFTQKGNLLRHIKL | 0.624
FDCDQCGAVFTQKGNLLRHIKL | -1.39
FKCNQCGHLFTQKGNLLRHIKL | -0.844
LSCPICGFKCTQKGNLLRHIKL | 0.852
FWCEICGHCFTQKGNLLRHIKL | 0.429
FICPQCGAAFTQKGNLLRHIKL | -0.861
FLCEVCGAYFTQKGNLLRHIKL | -1.44
FFCNQCGHVFTQKGNLLRHIKL | 0.508
FLCNVCGAEFTQKGNLLRHIKL | 0.611
LSCEICGFECTQKGNLLRHIKL | -1.59
FSCNQCGHSFTQKGNLLRHIKL | -0.601
FRCPVCGAAFTQKGNLLRHIKL | -0.0733
FLCSVCGHPFTQKGNLLRHIKL | 0.254
FTCNQCGAKFTQKGNLLRHIKL | -0.833
FLCDVCGAFFTQKGNLLRHIKL | -0.766
FVCEICGRFFTQKGNLLRHIKL | -1.44
FQCPICGAQFTQKGNLLRHIKL | -0.408
FCCNQCGHSFTQKGNLLRHIKL | -0.639
FLCDQCGAVFTQKGNLLRHIKL | -1.32
FFCEICGHYFTQKGNLLRHIKL | 0.114
FFCPICGHIFTQKGNLLRHIKL | 0.496
